Experimental data published in the supplement of paper PMC11741623.
The list shows a part of the results. Interaction screen of human proteins with wild-type SARS-CoV-2 proteins by split-DHFR complementation in yeast, 1 µg/mL methotrexate. Value = fitness of the pair (three or more lineages) minus that of the viral protein without a human partner, on a scale set by negative (0) and fused positive (1) controls, mean of up to three cultures; higher = more likely to interact. Active = false discovery rate below 0.05 (one-sided t-test) in at least one culture. Nearly all pairs are not hits, and differences among them are mostly noise (correlation between cultures about 0.3); most hits were seen in one culture only. Human sequences are the Swiss-Prot entries looked up by gene name; the clone may be another isoform. NSP2 values were corrected by the authors for a growth advantage. Listed are human proteins with a hit and a random twelfth of the others.

How the values were obtained:
Experiment in all cases: yeast fitness gain over the viral ORF with no human partner (scaled fitness); higher = more likely to interact
SARS-CoV-2 E = molecular target: SARS-CoV-2 E
Procedure: (§1)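 Split mouse DHFR complementation in pooled diploid yeast: human ORFeome clones carry one fragment and viral ORFs the other; barcoded lineages compete in 1 µg/mL methotrexate and fitness is read by barcode sequencing in up to three cultures.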

SARS-CoV-2 M = molecular target: SARS-CoV-2 M
Procedure: as §1

SARS-CoV-2 N = molecular target: SARS-CoV-2 N
Procedure: as §1

SARS-CoV-2 NSP1 = molecular target: SARS-CoV-2 NSP1
Procedure: as §1

SARS-CoV-2 NSP10 = molecular target: SARS-CoV-2 NSP10
Procedure: as §1

SARS-CoV-2 NSP12 = molecular target: SARS-CoV-2 NSP12
Procedure: as §1

SARS-CoV-2 NSP13 = molecular target: SARS-CoV-2 NSP13
Procedure: as §1

SARS-CoV-2 NSP14 = molecular target: SARS-CoV-2 NSP14
Procedure: as §1

SARS-CoV-2 NSP15 = molecular target: SARS-CoV-2 NSP15
Procedure: as §1

SARS-CoV-2 NSP16 = molecular target: SARS-CoV-2 NSP16
Procedure: as §1

SARS-CoV-2 NSP2 = molecular target: SARS-CoV-2 NSP2
Procedure: as §1

SARS-CoV-2 NSP4 = molecular target: SARS-CoV-2 NSP4
Procedure: as §1

SARS-CoV-2 NSP5 = molecular target: SARS-CoV-2 NSP5
Procedure: as §1

SARS-CoV-2 NSP6 = molecular target: SARS-CoV-2 NSP6
Procedure: as §1

SARS-CoV-2 NSP7 = molecular target: SARS-CoV-2 NSP7
Procedure: as §1

SARS-CoV-2 NSP8 = molecular target: SARS-CoV-2 NSP8
Procedure: as §1

SARS-CoV-2 NSP9 = molecular target: SARS-CoV-2 NSP9
Procedure: as §1

SARS-CoV-2 ORF10 = molecular target: SARS-CoV-2 ORF10
Procedure: as §1

SARS-CoV-2 ORF3A = molecular target: SARS-CoV-2 ORF3A
Procedure: as §1

SARS-CoV-2 ORF3B = molecular target: SARS-CoV-2 ORF3B
Procedure: as §1

SARS-CoV-2 ORF6 = molecular target: SARS-CoV-2 ORF6
Procedure: as §1

SARS-CoV-2 ORF7A = molecular target: SARS-CoV-2 ORF7A
Procedure: as §1

SARS-CoV-2 ORF7B = molecular target: SARS-CoV-2 ORF7B
Procedure: as §1

SARS-CoV-2 ORF8 = molecular target: SARS-CoV-2 ORF8
Procedure: as §1

SARS-CoV-2 ORF9B = molecular target: SARS-CoV-2 ORF9B
Procedure: as §1

[1] = molecular target: SARS-CoV-2 ORF9Bwu (the 73-codon ORF)
Procedure: as §1

SARS-CoV-2 S = molecular target: SARS-CoV-2 S
Procedure: as §1

Measured: yeast fitness gain

B1: POU2AF1, Q16633 (protein)
chain: MLWQKPTAPEQAPAPARPYQGVRVKEPVKELLRRKRGHASSGAAPAPTAVVLPHQPLATYTTVGPSCLDMEGSVSAVTEEAALCAGWLSQPTPATLQPLAPWTPYTEYVPHEAVSCPYSADMYVQPVCPSYTVVGPSSVLTYASPPLITNVTTRSSATPAVGPPLEGPEHQAPLTYFPWPQPLSTLPTSTLQYQPPAPALPGPQFVQLPISIPEPVLQDMEDPRRAASSLTIDKLLLEEEDSDAYALNHTLSVEGF
inactive: SARS-CoV-2 E 0.00983 | SARS-CoV-2 M 0.013 | SARS-CoV-2 N -0.0399 | SARS-CoV-2 NSP1 = -0.0284 | SARS-CoV-2 NSP10 = 0.00219 | SARS-CoV-2 NSP12 = -0.026 | SARS-CoV-2 NSP13 = 0.026 | SARS-CoV-2 NSP14 = -0.403 | SARS-CoV-2 NSP15 = -0.104 | SARS-CoV-2 NSP16 = 0.0583 | SARS-CoV-2 NSP2 = -0.0786 | SARS-CoV-2 NSP4 = -0.101 | SARS-CoV-2 NSP5 = -0.0511 | SARS-CoV-2 NSP6 = 0.0313 | SARS-CoV-2 NSP7 = 0.0197 | SARS-CoV-2 NSP8 = 0.0196 | SARS-CoV-2 NSP9 = 0.0462 | SARS-CoV-2 ORF10 = -0.0265 | SARS-CoV-2 ORF3A 0.0343 | SARS-CoV-2 ORF3B 0.0337 | SARS-CoV-2 ORF6 = 0.00433 | SARS-CoV-2 ORF7A 0.00122 | SARS-CoV-2 ORF7B 0.0162 | SARS-CoV-2 ORF8 = 0.0346 | SARS-CoV-2 ORF9B 0.0216 | [1] 0.0203 | SARS-CoV-2 S 0.0446

B2: SYT2, Q8N9I0 (protein)
chain: MRNIFKRNQEPIVAPATTTATMPIGPVDNSTESGGAGESQEDMFAKLKEKLFNEINKIPLPPWALIAIAVVAGLLLLTCCFCICKKCCCKKKKNKKEKGKGMKNAMNMKDMKGGQDDDDAETGLTEGEGEGEEEKEPENLGKLQFSLDYDFQANQLTVGVLQAAELPALDMGGTSDPYVKVFLLPDKKKKYETKVHRKTLNPAFNETFTFKVPYQELGGKTLVMAIYDFDRFSKHDIIGEVKVPMNTVDLGQPIEEWRDLQGGEKEEPEKLGDICTSLRYVPTAGKLTVCILEAKNLKKMDVGGLSDPYVKIHLMQNGKRLKKKKTTVKKKTLNPYFNESFSFEIPFEQIQKVQVVVTVLDYDKLGKNEAIGKIFVGSNATGTELRHWSDMLANPRRPIAQWHSLKPEEEVDALLGKNK
inactive: SARS-CoV-2 E 0.0818 | SARS-CoV-2 M 0.0681 | SARS-CoV-2 N -0.00566 | SARS-CoV-2 NSP1 = 0.0221 | SARS-CoV-2 NSP10 = 0.0697 | SARS-CoV-2 NSP12 = 0.0455 | SARS-CoV-2 NSP13 = 0.0332 | SARS-CoV-2 NSP14 = -0.0523 | SARS-CoV-2 NSP15 = -0.115 | SARS-CoV-2 NSP16 = -0.00194 | SARS-CoV-2 NSP2 = 0.0181 | SARS-CoV-2 NSP5 = 0.0412 | SARS-CoV-2 NSP6 = 0.0674 | SARS-CoV-2 NSP7 = 0.0711 | SARS-CoV-2 NSP8 = 0.0319 | SARS-CoV-2 NSP9 = -0.00124 | SARS-CoV-2 ORF10 = 0.0294 | SARS-CoV-2 ORF3A -0.0395 | SARS-CoV-2 ORF3B 0.058 | SARS-CoV-2 ORF6 = 0.0455 | SARS-CoV-2 ORF7A 0.379 | SARS-CoV-2 ORF7B 0.235 | SARS-CoV-2 ORF8 = -0.0226 | SARS-CoV-2 ORF9B 0.003 | [1] -0.223 | SARS-CoV-2 S 0.0103
active: SARS-CoV-2 NSP4 = 0.551

B3: C2orf48, Q96LS8 (protein)
chain: MESRPSGRQHASEGDGDQSPTQCAGMRSSGRSDQPYVLKGNPLLLRVRCYSGCASGSGRQLQLSVFQDLNQFSHCRVWRSPALIVKGEPPWCSQQDTQSPFQTGTPLERPCFRMKLSGWELTKNAQRALGSKLQHILSLDSTQACGAGGPTILRPPRAP
inactive: SARS-CoV-2 E -0.00998 | SARS-CoV-2 NSP10 = -0.0673 | SARS-CoV-2 NSP12 = -0.142 | SARS-CoV-2 NSP13 = -0.093 | SARS-CoV-2 NSP15 = -0.0523 | SARS-CoV-2 NSP2 = -0.126 | SARS-CoV-2 NSP5 = -0.0732 | SARS-CoV-2 NSP6 = 0.0334 | SARS-CoV-2 NSP8 = -0.104 | SARS-CoV-2 ORF10 = -0.0194 | SARS-CoV-2 ORF3B 0.0289 | SARS-CoV-2 ORF6 = -0.067 | SARS-CoV-2 ORF7B -0.0245 | SARS-CoV-2 ORF8 = 0.0276 | SARS-CoV-2 ORF9B -0.0939 | [1] 0.0328 | SARS-CoV-2 S -0.0646

B4: TAS2R41, P59536 (protein)
chain: MQAALTAFFVLLFSLLSLLGIAANGFIVLVLGREWLRYGRLLPLDMILISLGASRFCLQLVGTVHNFYYSAQKVEYSGGLGRQFFHLHWHFLNSATFWFCSWLSVLFCVKIANITHSTFLWLKWRFPGWVPWLLLGSVLISFIITLLFFWVNYPVYQEFLIRKFSGNMTYKWNTRIETYYFPSLKLVIWSIPFSVFLVSIMLLINSLRRHTQRMQHNGHSLQDPSTQAHTRALKSLISFLILYALSFLSLIIDAAKFISMQNDFYWPWQIAVYLCISVHPFILIFSNLKLRSVFSQLLLLARGFWVA
inactive: SARS-CoV-2 E 0.125 | SARS-CoV-2 M 0.0375 | SARS-CoV-2 N 0.0523 | SARS-CoV-2 NSP1 = 0.0363 | SARS-CoV-2 NSP10 = 0.0389 | SARS-CoV-2 NSP12 = -0.0416 | SARS-CoV-2 NSP13 = 0.00536 | SARS-CoV-2 NSP14 = -0.0372 | SARS-CoV-2 NSP15 = -0.063 | SARS-CoV-2 NSP16 = 0.0474 | SARS-CoV-2 NSP2 = -0.171 | SARS-CoV-2 NSP4 = 0.315 | SARS-CoV-2 NSP5 = 0.104 | SARS-CoV-2 NSP6 = -0.00814 | SARS-CoV-2 NSP7 = 0.0385 | SARS-CoV-2 NSP8 = -0.0167 | SARS-CoV-2 NSP9 = 0.119 | SARS-CoV-2 ORF10 = 0.00284 | SARS-CoV-2 ORF3A -0.00666 | SARS-CoV-2 ORF3B 0.00987 | SARS-CoV-2 ORF6 = 0.0242 | SARS-CoV-2 ORF7B 0.104 | SARS-CoV-2 ORF8 = -0.000901 | SARS-CoV-2 ORF9B 0.0124 | [1] -0.014 | SARS-CoV-2 S 0.0528
active: SARS-CoV-2 ORF7A 0.402
